The list shows a part of the results.
B1: chr14:53043751:53043854:-|3pUTR|ENSG00000100523|unk|total|mutant (ssRNA)
RNA: GGGAGUUCUACAGUCCGACGAUCACUCCGAUUAAAUCUUGCUUUAUUUUUACUUUAAAAUCCGUCUUGCUAAGGCCUUAUGUCCGUUCAUACUUUCUUUUCAACAGUAAUCUUGUUUAUAAUCCAGUGUUUCUGUGUUUCCGGCAACAGAGGAUUGAGCAUCA
B2: chr12:103267852:103268962:-|three_prime_utr|ENSG00000179088|control|control|control (ssRNA)
RNA: GGGAGUUCUACAGUCCGACGAUCUCCUGCACCUGCCUUCUUGAAAGAAAACAAGACAUCAGAUACUUAUUCAAAUAAUGGAAUAGCUGAUCAACUGGGUCUCCACACAAAAGAGAGUUAUCCAUGAUAAAAGAACAACUUUUUCAACAGAGGAUUGAGCAUCA
B3: chr5:157463210:157463311:+|CDS|ENSG00000172548|unk|FALSE|unique (ssRNA)
RNA: GGGAGUUCUACAGUCCGACGAUCCAGGAAAGAAUCAGGCAGAACUAUGGCUUCUACAUCGGCCUGGGCCUGGCAUUCCUGUCUAGCUUCCUCAUCGGCAGCAGCGUCAUCCUCAAGAAGAAAGGCCUCUUGCGACUCGUGGCCCAACAGAGGAUUGAGCAUCA
B4: chr9:19276226:19276327:+|CDS|ENSG00000137145|unk|total|mutant (ssRNA)
RNA: GGGAGUUCUACAGUCCGACGAUCCUUUGUCGCCGCUGGUCUCACUGACACAUCUACUCUUUUGGAUCAAGAAAUAAAUCGUUCCGAUACUAAGUCAACUGGACCUAAAGCUCCAAUUACAGACAUUGCCAUUAUUAUCAAAUCCAACAGAGGAUUGAGCAUCA
B5: chr21:26917921:26924620:-|three_prime_utr|ENSG00000154736|control|control|control (ssRNA)
RNA: GGGAGUUCUACAGUCCGACGAUCAGGAUUCCUGAAGGGGCAACCCACAUAAAAGUUCGACAGUUCAAAGCCAAAGACCAGACUAGAUUCACUGCCUAUUUAGCCCUGAAAAAGAAAAACGGUGAGUACCUUAUCAAUGGAAAGCAACAGAGGAUUGAGCAUCA
B6: ENSG00000107863:be:win_2451|CDS|ENSG00000107863|bound_else_gene|NA|bound_elsewhere_windowed (ssRNA)
RNA: GGGAGUUCUACAGUCCGACGAUCUGAUAUUGCACAUAUCCCUGCCUCUGCUGUUAUAUCAGCCUCUACCUCUCAGGUCCCCUCCAUAGCAACAGUUCCUCCUUGCCUCACAACUUCAGCUCCAUUAAUUCGCCGUCAGCUCUCCAACAGAGGAUUGAGCAUCA
B7: ENSG00000107863:be:win_2651|CDS|ENSG00000107863|bound_else_gene|NA|bound_elsewhere_windowed (ssRNA)
RNA: GGGAGUUCUACAGUCCGACGAUCAGGGUCUGGAUGAUUACAGAGAAGAUGCAAAAUUGUCCUUUAAGCACGUAUCUAGUCUGAAGGGAAUCAAGAUCGCAGACAGCCAAAAGUCAUCAGAAGACUCUGGGUCCAGAAAAGAUUCAACAGAGGAUUGAGCAUCA
B8: ENSG00000107863:be:win_5251|CDS|ENSG00000107863|bound_else_gene|NA|bound_elsewhere_windowed (ssRNA)
RNA: GGGAGUUCUACAGUCCGACGAUCAGAGGCGAAUCCGAAAAACAGGAACCCACAUGGAAAACGAAAAUAGCAGAUCGGUUAAAACUGAGACCCAGAGCCCCUGCGGAUGACAUGUUUGGAGUAGGGAAUCACAAAGUGAAUGCCCAACAGAGGAUUGAGCAUCA
B9: chrX:41141081:41141111:+|CDS|ENSG00000124486|msi1_unk|total|mutant (ssRNA)
RNA: GGGAGUUCUACAGUCCGACGAUCCACUCUUCAUACAGUGAAAAAGUACUUUCUUCCAAUAACCGAAAUGGUUCCACAGUUUUCCGAAAACUUAACUGAUGAAGAACUGAAAAAAGAAGCAAAGAAUGAAGCCAAAAAUGAUGCCAACAGAGGAUUGAGCAUCA
B10: chr4:113336597:113336699:+|CDS|ENSG00000145362|unk|total|mutant (ssRNA)
RNA: GGGAGUUCUACAGUCCGACGAUCACCUAUGCACAGUGAGCUGGUUAAGAAGAUCCCCGGCAACAAAGCUACCUUCAGCCCUACCGUCACUUUGGAACCCCGAAGAAGAAAAUUCCACAAACCAAUUACCAUGACCAUUCCUGUCAACAGAGGAUUGAGCAUCA
B11: chr20:3963869:3963970:-|CDS|ENSG00000101236|unk|total|mutant (ssRNA)
RNA: GGGAGUUCUACAGUCCGACGAUCAAUCUGCCUCUCAACAUAUAUAUUGUGGUUUUUGGUACUGCUAUAUUUGUCUUCAUCCUCCGUUUACUCUUCUGUUGCUACUUGAUCCGGUAACCAAUUUUCAUUCUAUGUUACUUCAAACAACAGAGGAUUGAGCAUCA
B12: chr13:108210031:108210147:-|CDS|ENSG00000174405|unk|total|mutant (ssRNA)
RNA: GGGAGUUCUACAGUCCGACGAUCAUGGUUAAUAAUAAAAAGCCCGGGCAUGAGACUCUGAGAAAGAGGUAUGAGAUUCUCCGCCGUAUUUUUACACCAAUUCCAGGCCGAACCGAAACCGUGCAGAAAACACAAGCUCAUACUCAACAGAGGAUUGAGCAUCA
B13: chr13:38882223:38882324:+|3pUTR|ENSG00000150893|msi1|total|mutant (ssRNA)
RNA: GGGAGUUCUACAGUCCGACGAUCAGAAAAAUAAGGUCAGGAGAAAAAGAAUAAUGCCUACAGAUUAUCCUUCAGAUGCUGGCCCGAAUCCCCUUUGACUUCCCGCCAUAAGCUGGCCACAUUGGACAUCUUGGUCACUGCAGACAACAGAGGAUUGAGCAUCA
B14: chr5:154417748:154417849:+|3pUTR|ENSG00000164574|msi1|FALSE|unique (ssRNA)
RNA: GGGAGUUCUACAGUCCGACGAUCCAGCACCAGCUUUACAGGGCAGUGUUUCAGAUGGCCCUGAGCCCACGGAAAAGGCCAGGUAGACCUCCAAACUAGAAAUGCUGGCUGAUUUGCCCUGAUCCAUGCUUCCAUUUCCCUGUCCAACAGAGGAUUGAGCAUCA

target: MSI1 full-length (mouse, UniProt Q61474 1-362); assay: nsRBNS (natural sequence RNA bind-n-seq); RBNS binding buffer (assumed for nsRBNS): 25 mM Tris pH 7.5, 150 mM KCl, 3 mM MgCl2, 0.01% Triton X-100, 500 ug/ml BSA, 20 U/ml SUPERase-In, 4 C; UNK is unkempt and MSI1 is Musashi-1; names of the RNAs are library labels; protein concentration not given here; high values mean tight binding
UniProt Q61474, sequence (Q61474 whole entry): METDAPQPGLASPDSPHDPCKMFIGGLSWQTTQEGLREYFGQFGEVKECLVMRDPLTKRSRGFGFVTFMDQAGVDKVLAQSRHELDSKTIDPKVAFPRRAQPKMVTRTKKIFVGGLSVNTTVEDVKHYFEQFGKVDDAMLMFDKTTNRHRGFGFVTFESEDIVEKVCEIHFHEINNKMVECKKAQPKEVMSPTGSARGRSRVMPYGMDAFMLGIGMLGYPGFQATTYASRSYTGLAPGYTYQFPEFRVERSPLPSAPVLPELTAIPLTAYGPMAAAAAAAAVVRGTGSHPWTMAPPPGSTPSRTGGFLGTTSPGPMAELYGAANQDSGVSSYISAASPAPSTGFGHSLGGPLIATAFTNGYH

**Q.** How did the binding signal turn out when B1 was run?
**A.** 2.39 enrichment R

**Q.** B2 was tested. Which binding signal did it give?
**A.** 0.277 enrichment R

**Q.** B3 was tested. Which binding signal did it give?
**A.** 0.527 enrichment R

**Q.** How did the binding signal turn out when B4 was run?
**A.** 0.315 enrichment R

**Q.** How did the binding signal turn out when B5 was run?
**A.** 0.865 enrichment R

**Q.** How did the binding signal turn out when B6 was run?
**A.** 1.25 enrichment R

**Q.** For B7, which binding signal is on record?
**A.** 0.365 enrichment R

**Q.** For B8, which binding signal is on record?
**A.** 0.537 enrichment R

**Q.** With B9 as the binder, how does the binding signal read?
**A.** 0.267 enrichment R

**Q.** B10 was tested. Which binding signal did it give?
**A.** 0.614 enrichment R

**Q.** Which binding signal does the source give for B11 here?
**A.** 0.745 enrichment R

**Q.** With B12 as the binder, how does the binding signal read?
**A.** 0.569 enrichment R

**Q.** How did the binding signal turn out when B13 was run?
**A.** 0.318 enrichment R

**Q.** How did the binding signal turn out when B14 was run?
**A.** 0.544 enrichment R

From paper PMC12136788
